# Results reported in the supplement of paper PMC8728848.
# This is one part of the list.
# B1: XCL (Xerocomus chrysenteron) (protein)
# chain: MSYSITLRVYQTNRDRGYFSIVEKTVWHFANGGTWSEANGAHTLTQGGSGTSGVLRFLSTKGERITVAVGVHNYKRWCDVVTGLKPDETALVINPQYYNNGGRDYVREKQLAEYSVTSAIGTKVEVVYTVAEGNNLEANVIFS
# Tests used:
# Assay in all cases: glycan array binding signal (z-score within array); higher = stronger binding
# Conditions in all cases: glycan notation: IUPAC condensed, linker removed
# [1] = target: Fuc(a1-2)[GalNAc(a1-3)]Gal(b1-4)Glc
# Method in brief: (§1)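 The Consortium for Functional Glycomics database supplied 3228 glycan arrays, of which those lacking an available protein sequence were dropped. The binding signal, a within-array Z-score, was averaged across arrays of the same protein sequence and across linkers. Negative scores can be read as non-binding.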
# [2] = target: Fuc(a1-2)[GalNAc(a1-3)]Gal(b1-4)GlcNAc
# Method in brief: as §1
# [3] = target: Fuc(a1-2)[GalNAc(a1-3)]Gal(b1-4)GlcNAc(b1-2)Man(a1-3)[Fuc(a1-2)[GalNAc(a1-3)]Gal(b1-4)GlcNAc(b1-2)Man(a1-6)]Man(b1-4)GlcNAc(b1-4)GlcNAc
# Method in brief: as §1
# [4] = target: Fuc(a1-2)[GalNAc(a1-3)]Gal(b1-4)GlcNAc(b1-2)Man(a1-3)[Fuc(a1-2)[GalNAc(a1-3)]Gal(b1-4)GlcNAc(b1-2)Man(a1-6)]Man(b1-4)GlcNAc(b1-4)[Fuc(a1-6)]GlcNAc
# Method in brief: as §1
# [5] = target: Fuc(a1-2)[GalNAc(a1-3)]Gal(b1-4)GlcNAc(b1-3)Gal(b1-4)GlcNAc
# Method in brief: as §1
# [6] = target: Fuc(a1-2)[GalNAc(a1-3)]Gal(b1-4)GlcNAc(b1-3)Gal(b1-4)GlcNAc(b1-3)Gal(b1-4)GlcNAc
# Method in brief: as §1
# [7] = target: Fuc(a1-2)[GalNAc(a1-3)]Gal(b1-4)GlcNAc(b1-3)GalNAc
# Method in brief: as §1
# [8] = target: Fuc(a1-2)[GalNAc(a1-3)]Gal(b1-4)[Fuc(a1-3)]GlcNAc
# Method in brief: as §1
# [9] = target: Fuc(a1-2)[GalNAc(a1-3)]Gal(b1-4)[Fuc(a1-3)]GlcNAc(b1-3)GalNAc
# Method in brief: as §1
# [10] = target: Fuc(a1-2)[GalNAc(a1-4)]Gal(b1-4)GlcNAc
# Method in brief: as §1
# [11] = target: Fuc(a1-2)[GalNAc(b1-3)]Gal
# Method in brief: as §1
# Fuc(a1-3)GlcNAc = target: Fuc(a1-3)GlcNAc
# Method in brief: as §1
# [12] = target: Fuc(a1-3)[Gal(b1-4)]Glc6S
# Method in brief: as §1
# [13] = target: Fuc(a1-3)[Gal(b1-4)]GlcNAc
# Method in brief: as §1
# [14] = target: Fuc(a1-3)[Gal(b1-4)]GlcNAc(b1-2)Man(a1-3)[Fuc(a1-3)[Gal(b1-4)]GlcNAc(b1-2)Man(a1-6)]Man(b1-4)GlcNAc(b1-4)GlcNAc
# Method in brief: as §1
# [15] = target: Fuc(a1-3)[Gal(b1-4)]GlcNAc(b1-2)Man(a1-3)[Fuc(a1-3)[Gal(b1-4)]GlcNAc(b1-2)Man(a1-6)]Man(b1-4)GlcNAc(b1-4)[Fuc(a1-6)]GlcNAc
# Method in brief: as §1
# [16] = target: Fuc(a1-3)[Gal(b1-4)]GlcNAc(b1-3)Gal(b1-3)[Fuc(a1-4)]GlcNAc
# Method in brief: as §1
# [17] = target: Fuc(a1-3)[Gal(b1-4)]GlcNAc(b1-3)GalNAc
# Method in brief: as §1
# [18] = target: Fuc(a1-3)[Gal(b1-4)]GlcNAc(b1-4)Gal(b1-4)[Fuc(a1-3)]GlcNAc
# Method in brief: as §1
# [19] = target: Fuc(a1-3)[Gal(b1-4)]GlcNAc(b1-4)Gal(b1-4)[Fuc(a1-3)]GlcNAc(b1-4)Gal(b1-4)[Fuc(a1-3)]GlcNAc
# Method in brief: as §1
# [20] = target: Fuc(a1-3)[Gal(b1-4)]GlcNAc(b1-6)GalNAc
# Method in brief: as §1
# [21] = target: Fuc(a1-3)[Gal(b1-4)]GlcNAc(b1-6)[Gal(b1-3)GlcNAc(b1-3)]Gal(b1-4)Glc
# Method in brief: as §1
# [22] = target: Fuc(a1-3)[Gal(b1-4)]GlcNAc(b1-6)[Neu5Ac(a2-3)Gal(b1-3)]GalNAc
# Method in brief: as §1
# [23] = target: Fuc(a1-3)[Gal(b1-4)]GlcNAc6S
# Method in brief: as §1
# [24] = target: Fuc(a1-3)[Gal3S(b1-4)]GlcNAc
# Method in brief: as §1
# [25] = target: Fuc(a1-3)[Gal3S(b1-4)]GlcNAc6S
# Method in brief: as §1
# [26] = target: Fuc(a1-3)[GalNAc(b1-4)]GlcNAc
# Method in brief: as §1
# Fuc(a1-4)GlcNAc = target: Fuc(a1-4)GlcNAc
# Method in brief: as §1
# Fuc(b1-3)GlcNAc = target: Fuc(b1-3)GlcNAc
# Method in brief: as §1
# Gal(a1-2)Gal = target: Gal(a1-2)Gal
# Method in brief: as §1
# Gal(a1-3)Gal = target: Gal(a1-3)Gal
# Method in brief: as §1
# Gal(a1-3)Gal(b1-3)GlcNAc = target: Gal(a1-3)Gal(b1-3)GlcNAc
# Method in brief: as §1
# [27] = target: Gal(a1-3)Gal(b1-3)GlcNAc(b1-2)Man(a1-3)[Gal(a1-3)Gal(b1-3)GlcNAc(b1-2)Man(a1-6)]Man(b1-4)GlcNAc(b1-4)GlcNAc
# Method in brief: as §1
# [28] = target: Gal(a1-3)Gal(b1-3)GlcNAc(b1-3)GalNAc
# Method in brief: as §1
# [29] = target: Gal(a1-3)Gal(b1-3)[Fuc(a1-4)]GlcNAc(b1-2)Man(a1-3)[Gal(a1-3)Gal(b1-3)[Fuc(a1-4)]GlcNAc(b1-2)Man(a1-6)]Man(b1-4)GlcNAc(b1-4)GlcNAc
# Method in brief: as §1
# Gal(a1-3)Gal(b1-4)Glc = target: Gal(a1-3)Gal(b1-4)Glc
# Method in brief: as §1
# Gal(a1-3)Gal(b1-4)GlcNAc = target: Gal(a1-3)Gal(b1-4)GlcNAc
# Method in brief: as §1
# [30] = target: Gal(a1-3)Gal(b1-4)GlcNAc(b1-3)GalNAc
# Method in brief: as §1
# [31] = target: Gal(a1-3)Gal(b1-4)[Fuc(a1-3)]GlcNAc
# Method in brief: as §1
# [32] = target: Gal(a1-3)Gal(b1-4)[Fuc(a1-3)]GlcNAc(b1-2)Man(a1-3)[Gal(a1-3)Gal(b1-4)[Fuc(a1-3)]GlcNAc(b1-2)Man(a1-6)]Man(b1-4)GlcNAc(b1-4)GlcNAc
# Method in brief: as §1
# Gal(a1-3)GalNAc = target: Gal(a1-3)GalNAc
# Method in brief: as §1
# [33] = target: Gal(a1-3)[Gal(a1-4)]Gal(b1-4)GlcNAc
# Method in brief: as §1
# [34] = target: Gal(a1-4)Gal(b1-3)GlcNAc(b1-2)Man(a1-3)[Gal(a1-4)Gal(b1-3)GlcNAc(b1-2)Man(a1-6)]Man(b1-4)GlcNAc(b1-4)GlcNAc
# Method in brief: as §1
# Gal(a1-4)Gal(b1-4)Glc = target: Gal(a1-4)Gal(b1-4)Glc
# Method in brief: as §1
# Gal(a1-4)Gal(b1-4)GlcNAc = target: Gal(a1-4)Gal(b1-4)GlcNAc
# Method in brief: as §1
binder,measurement,setting,value
B1,glycan array binding signal (z-score),[1],-0.161
same,glycan array binding signal (z-score),[2],0.068
same,glycan array binding signal (z-score),[3],0.185
same,glycan array binding signal (z-score),[4],-0.245
same,glycan array binding signal (z-score),[5],-0.202
same,glycan array binding signal (z-score),[6],-0.277
same,glycan array binding signal (z-score),[7],-0.085
same,glycan array binding signal (z-score),[8],-0.21
same,glycan array binding signal (z-score),[9],-0.188
same,glycan array binding signal (z-score),[10],-0.299
same,glycan array binding signal (z-score),[11],-0.325
same,glycan array binding signal (z-score),Fuc(a1-3)GlcNAc,-0.302
same,glycan array binding signal (z-score),[12],-0.326
same,glycan array binding signal (z-score),[13],-0.303
same,glycan array binding signal (z-score),[14],-0.324
same,glycan array binding signal (z-score),[15],-0.251
same,glycan array binding signal (z-score),[16],-0.31
same,glycan array binding signal (z-score),[17],-0.27
same,glycan array binding signal (z-score),[18],-0.303
same,glycan array binding signal (z-score),[19],-0.291
same,glycan array binding signal (z-score),[20],-0.297
same,glycan array binding signal (z-score),[21],-0.321
same,glycan array binding signal (z-score),[22],-0.04
same,glycan array binding signal (z-score),[23],-0.321
same,glycan array binding signal (z-score),[24],-0.317
same,glycan array binding signal (z-score),[25],-0.312
same,glycan array binding signal (z-score),[26],-0.315
same,glycan array binding signal (z-score),Fuc(a1-4)GlcNAc,-0.295
same,glycan array binding signal (z-score),Fuc(b1-3)GlcNAc,-0.329
same,glycan array binding signal (z-score),Gal(a1-2)Gal,-0.319
same,glycan array binding signal (z-score),Gal(a1-3)Gal,-0.319
same,glycan array binding signal (z-score),Gal(a1-3)Gal(b1-3)GlcNAc,-0.308
same,glycan array binding signal (z-score),[27],-0.253
same,glycan array binding signal (z-score),[28],-0.276
same,glycan array binding signal (z-score),[29],-0.202
same,glycan array binding signal (z-score),Gal(a1-3)Gal(b1-4)Glc,-0.32
same,glycan array binding signal (z-score),Gal(a1-3)Gal(b1-4)GlcNAc,-0.327
same,glycan array binding signal (z-score),[30],0.103
same,glycan array binding signal (z-score),[31],-0.315
same,glycan array binding signal (z-score),[32],-0.247
same,glycan array binding signal (z-score),Gal(a1-3)GalNAc,-0.207
same,glycan array binding signal (z-score),[33],-0.319
same,glycan array binding signal (z-score),[34],-0.307
same,glycan array binding signal (z-score),Gal(a1-4)Gal(b1-4)Glc,-0.282
same,glycan array binding signal (z-score),Gal(a1-4)Gal(b1-4)GlcNAc,-0.301
